# Screen size: about 390,000 compounds; about 2,200 (0.56%) were called active. Inconclusive results, whose numbers are uncertain, are shown with a selection of clear calls. Calls come from the whole dose curve; as a rule, active = well fitted inhibition curve with a large enough effect; inconclusive = small, poorly fitted or top-dose-only effect; inactive = no such curve, though single readings can be large or run the other way. Potencies beside an inconclusive call are fits to weak or partial responses and may not hold up.
# Target: Chromobox protein homolog 1 (Homo sapiens) (UniProt P83916)
# Assay: HTS for Inhibitors of HP1-beta Chromodomain Interactions with Methylated Histone Tails; note: nearly all actives have a fitted effect of over 70% in size
# Conditions: AlphaScreen HP1-beta / biotin-H3K9me3 peptide binding; series mostly up to 114 µM
# Procedure, shortened: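 HP1-beta protein (50 nM final) preincubated 30 min at room temperature with biotinylated H3(1-18)K9me3 peptide (50 nM) in PBS pH 7.4, 0.01% Tween-20, then compound added for 30 min. AlphaScreen streptavidin donor/nickel chelate acceptor beads (10 ug/mL final), 30 min dark, luminescence read.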
# Potency is the fitted concentration of half-maximal effect; tags give direction and shape of the fitted curve.
# Chain of UniProt P83916 (P83916 whole entry, looked up): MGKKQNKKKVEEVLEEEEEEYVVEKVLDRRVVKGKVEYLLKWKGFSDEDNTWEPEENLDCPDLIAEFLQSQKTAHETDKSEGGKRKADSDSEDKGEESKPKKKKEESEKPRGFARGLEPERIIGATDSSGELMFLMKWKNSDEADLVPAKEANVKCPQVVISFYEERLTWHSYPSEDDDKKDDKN
row,Compound,Potency
1,Nc1cc(OCC(F)(F)F)cc([N+](=O)[O-])c1,inactive
2,O=C(CSc1nnc(COc2ccccc2)o1)NCCc1ccccc1,"inconclusive: 7.08 µM [inhibitor, single point]"
3,Cn1nc(-c2ccc(Cl)cc2)c2cc(C(=O)NC3CC3)sc21,inactive
4,COc1ccc(Cl)cc1NC(=O)C/C(C)=N/NC(=O)CC#N,inactive
5,O=C(c1ccco1)N1CCN(Cc2ccccc2Br)CC1,"inconclusive: 15.8 µM [inhibitor, full curve, poor fit]"
6,COc1cc(OC)c(NC(=O)NC(C)c2c(-n3cccc3)sc(C)c2C)cc1Cl (configuration not stated),"inconclusive: 14.1 µM [inhibitor, partial curve, poor fit]"
7,CCOC(=O)c1cc(-c2ccc(C)cc2)n(CCC(=O)N2CCN(c3ccccn3)CC2)c1C,"inconclusive: 56.2 µM [inhibitor, single point]"
8,COC(=O)C1=CN(c2cccc(C)c2)C=C(C(=O)OC)C1c1cc(OC)c(O)c([N+](=O)[O-])c1,"inconclusive: 15.8 µM [inhibitor, full curve, poor fit]"
9,COc1ccc(C2Nc3ccccc3C(=O)N2Cc2ccco2)cc1OC (configuration not stated),"inconclusive: 39.8 µM [inhibitor, single point]"
10,CN(CC(=O)Nc1c(Cl)cccc1Cl)C(=O)c1sccc1-c1ccccc1,inactive
11,CCn1c2ccccc2c2cc(CN3CCN(Cc4cc(OC)ccc4O)CC3)ccc21,"inconclusive: 12.6 µM [inhibitor, full curve]"
12,COc1ccc(-c2cn(-c3ccc(C)c(C)c3)c(=S)[nH]2)cc1OC,"inconclusive: 44.7 µM [inhibitor, partial curve]"
13,COc1ccc(NS(=O)(=O)c2cc(N)ccc2N2CCCC2)cc1,"inconclusive: 50.1 µM [inhibitor, partial curve, poor fit]"
14,COc1cc(NC(=O)CN2C(=O)CN(C)C(=O)c3ccccc32)cc(OC)c1OC,inactive
15,Oc1ccc(Nc2nc3ccccc3nc2Nc2ccc(O)cc2)cc1,"inconclusive: 50.1 µM [inhibitor, partial curve]"
16,O=C(Nc1nc(=S)ss1)c1ccc(Cl)cc1Cl,"inconclusive: 12.6 µM [inhibitor, full curve]"
17,O=C(NC(NC(=S)Nc1ccc(Cl)cc1Cl)C(Cl)(Cl)Cl)c1cccc([N+](=O)[O-])c1 (configuration not stated),"inconclusive: 17.8 µM [inhibitor, partial curve, poor fit]"
18,Oc1c(N=Nc2ccccn2)ccc2ccccc12,active: 5.01 µM
19,CC(C)Oc1ccc(C(CCN)C2CCCCC2)cc1 (configuration not stated),active: 79.4 µM
20,CNS(=O)(=O)c1ccc2c3c(cccc13)C(=O)N2C,"inconclusive: 35.5 µM [inhibitor, single point]"
21,C/C(=N\N(c1ccccc1)c1ccccc1)c1ccco1,"inconclusive: 44.7 µM [inhibitor, partial curve]"
22,C=CCn1c(SCC(C)=O)nc2scc(-c3ccco3)c2c1=O,"inconclusive: 50.1 µM [inhibitor, partial curve]"
23,O=C(/C=C/c1ccco1)c1ccc(NC(=O)C23CC4CC(CC(C4)C2)C3)cc1,"inconclusive: 31.6 µM [inhibitor, partial curve, poor fit]"

row,Compound,Potency
1,CCc1ccccc1NC(=O)CCS(=O)(=O)c1ccc(Br)cc1,"inconclusive: 50.1 µM [inhibitor, partial curve]"
2,O=C(NCCN1CCN(c2cccc(Cl)c2)CC1)C1COc2ccccc2C1 (configuration not stated),inactive
3,COc1cccc(-c2nc(CS(=O)(=O)CC(=O)Nc3c(C)cc(C)cc3C)c(C)o2)c1,inactive
4,COc1ccc(OC)c(Nc2nc(NCc3ccco3)c3ccccc3n2)c1,"inconclusive: 50.1 µM [inhibitor, partial curve]"
5,CCOC(=O)c1c(N)sc(C(C)=O)c1C,"inconclusive: 31.6 µM [inhibitor, partial curve, poor fit]"
6,S=C(Nc1ccc(Cl)cc1)c1sc(N2CCCCC2)nc1N1CCOCC1,"inconclusive: 22.4 µM [inhibitor, full curve]"
7,COc1ccc(N=C2NN=C(c3c(C)[nH]c4ccccc34)CS2)cc1,"inconclusive: 22.4 µM [inhibitor, full curve]"
8,CC(C)OCCCN(CC(O)c1ccccc1)CC(O)c1ccccc1 (configuration not stated),"inconclusive: 50.1 µM [inhibitor, single point]"
9,COc1ccc(S(=O)(=O)N2CCN(C(=O)C3COc4ccccc4O3)CC2)cc1 (configuration not stated),"inconclusive: 3.55 µM [inhibitor, full curve, poor fit]"
10,O=C(O)c1ccc(Nc2nc(-c3cc4ccccc4oc3=O)cs2)cc1O,active: 31.6 µM
11,C=CCN1C(=O)/C(=c2\sc3nc(=O)c(Cc4ccccc4Cl)nn3c2=O)c2ccccc21,"inconclusive: 39.8 µM [inhibitor, partial curve, poor fit]"
12,COc1ccc(N2CCC(CNC(=S)Nc3ccc(C)cc3C)C2)cc1 (configuration not stated),"inconclusive: 15.8 µM [inhibitor, full curve]"
13,CN(C)/N=C/c1ccc([N+](=O)[O-])cc1[N+](=O)[O-],"inconclusive: 35.5 µM [inhibitor, partial curve]"
14,CCOc1ccc2nc(N=NC3=C(O)CC(C)(C)CC3=O)sc2c1,"inconclusive: 35.5 µM [inhibitor, partial curve, poor fit]"
15,CCOC(=O)N1CCN(CC(=O)N2c3ccccc3CCc3ccccc32)CC1,"inconclusive: 25.1 µM [inhibitor, single point]"
16,COCC(C)NCc1ccc(OC)c(Br)c1 (configuration not stated),"inconclusive: 44.7 µM [inhibitor, partial curve]"
17,Cc1cc(OCCOCCNCc2ccccc2)ccc1C(C)C,"inconclusive: 22.4 µM [inhibitor, single point]"
18,CCOC(=O)c1ccccc1NC(=O)N1CCC(N2CCN(Cc3ccccc3)C(=O)C2=O)CC1,inactive
19,O=[N+]([O-])c1ccc(N2CCN(Cc3cccc([N+](=O)[O-])c3)CC2)cc1,inactive
20,COC(=O)c1scc(-c2ccc(C)cc2)c1S(=O)(=O)N1CCN(c2ccc(OC)cc2)CC1,"inconclusive: 28.2 µM [inhibitor, partial curve]"
21,CNC(CC(=O)c1ccc([N+](=O)[O-])cc1)C(Cl)(Cl)Cl (configuration not stated),active: 15.8 µM
22,COc1ccc(C(NCC(=O)NC(C)c2ccc(Cl)cc2)c2ccccc2)cc1 (configuration not stated),"inconclusive: 50.1 µM [inhibitor, partial curve]"
23,COc1cc(C(=O)Oc2ccc(Br)cc2C(=S)N2CCOCC2)cc(OC)c1OC,"inconclusive: 12.6 µM [inhibitor, full curve]"

row,Compound,Potency
1,COc1cc2c(cc1OC)C(c1cc(OC)c(OC)cc1[N+](=O)[O-])N(C(C)=O)CC2 (configuration not stated),inactive
2,COc1cc(OC)c(NS(=O)(=O)c2cc(-c3cnc(C)o3)ccc2OC)cc1Cl,inactive
3,CCCCN(C)C(=O)C1CCN(CCCc2ccccc2)CC1,"inconclusive: 20 µM [inhibitor, partial curve, poor fit]"
4,O=C(N/N=C/c1cc(Br)ccc1OC(=O)c1ccc(Br)cc1)c1ccncc1,"inconclusive: 89.1 µM [inhibitor, single point]"
5,CCOC(=O)c1ccc(N2C(=O)c3n[nH]c(-c4ccco4)c3C2c2ccc(O)c(OC)c2)cc1 (configuration not stated),"inconclusive: 39.8 µM [inhibitor, partial curve]"
6,O=C1C(=O)C(c2ccccc2)C(=O)C1c1ccccc1 (configuration not stated),inactive
7,CCC(C)OC(=O)/C(C#N)=C\c1ccc(-c2ccccc2Cl)o1 (configuration not stated),inactive
8,Cc1cccc(N=C2NC(=O)/C(=C/c3cn(C)c4ccccc34)S2)c1,"inconclusive: 8.91 µM [inhibitor, partial curve, poor fit]"
9,Cc1ccc(C(=O)Nc2onc3c2CCCC3)cc1,inactive
10,CC1CCN(c2c([N+](=O)[O-])nn(-c3ccc4c(c3)OCCO4)[n+]2[O-])CC1,"inconclusive: 20 µM [inhibitor, full curve, poor fit]"
11,COc1ccc([N+](=O)[O-])cc1NC(=O)CCS(=O)(=O)c1ccc(Br)cc1,"inconclusive: 50.1 µM [inhibitor, partial curve, poor fit]"
12,O=C(CN1CCc2ccccc2C1)Nc1cccc(S(=O)(=O)N2CCCC2)c1,"inconclusive: 28.2 µM [inhibitor, full curve]"
13,CCN1CCCc2cc(CN(CCN3CCOCC3)C(=S)Nc3cccc(Cl)c3)ccc21,"inconclusive: 11.2 µM [inhibitor, full curve, poor fit]"
14,COc1ccc(N2CCC(CNC(=O)Nc3cccc(OC)c3)C2)cc1 (configuration not stated),active: 15.8 µM
15,CC(=O)c1ccc(NC(=O)c2ccc(-c3nc(COc4ccc(C)cc4)c(C)o3)cc2)cc1,active: 44.7 µM
16,Cc1ccc(NC(=O)CSc2nnc(-c3ccncc3)s2)cc1,inactive
17,Cc1occc1C(=O)NCc1ccccc1,inactive
18,O=c1/c(=C/c2ccc(O)c([N+](=O)[O-])c2)sc2nc3ccccc3n12,"inconclusive: 56.2 µM [inhibitor, partial curve, poor fit]"
19,COc1ccc(-c2noc3c2-c2nc(-c4ccccc4)sc2CC3)cc1,"inconclusive: 50.1 µM [inhibitor, partial curve]"
20,NC(CSC(c1ccccc1)(c1ccccc1)c1cccc2ccccc12)C(=O)O (configuration not stated),"inconclusive: 79.4 µM [inhibitor, partial curve]"
21,CCN(CC)CCOC(=O)c1ccc(NC(=O)CCCN2C(=O)S/C(=C/c3ccc(OC)cc3)C2=S)cc1,"inconclusive: 8.91 µM [inhibitor, full curve]"
